In article PMC4336329 (PLoS ONE, 2015):
Among all 310,000 compounds or so, about 14,000 (4.5%) showed an effect of 50% or more. Effects have a minus sign here. The list shows a part of the results.

These molecules were tested against human ether-à-go-go-related gene (hERG) potassium channel (human, UniProt Q12809) (assay: primary screen, population patch clamp on CHO cells stably expressing hERG).
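Note: peak tail current of the secondary pulse compared with the same well before compound.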

human ether-à-go-go-related gene (hERG) potassium channel, sequence (Q12809 whole entry, looked up): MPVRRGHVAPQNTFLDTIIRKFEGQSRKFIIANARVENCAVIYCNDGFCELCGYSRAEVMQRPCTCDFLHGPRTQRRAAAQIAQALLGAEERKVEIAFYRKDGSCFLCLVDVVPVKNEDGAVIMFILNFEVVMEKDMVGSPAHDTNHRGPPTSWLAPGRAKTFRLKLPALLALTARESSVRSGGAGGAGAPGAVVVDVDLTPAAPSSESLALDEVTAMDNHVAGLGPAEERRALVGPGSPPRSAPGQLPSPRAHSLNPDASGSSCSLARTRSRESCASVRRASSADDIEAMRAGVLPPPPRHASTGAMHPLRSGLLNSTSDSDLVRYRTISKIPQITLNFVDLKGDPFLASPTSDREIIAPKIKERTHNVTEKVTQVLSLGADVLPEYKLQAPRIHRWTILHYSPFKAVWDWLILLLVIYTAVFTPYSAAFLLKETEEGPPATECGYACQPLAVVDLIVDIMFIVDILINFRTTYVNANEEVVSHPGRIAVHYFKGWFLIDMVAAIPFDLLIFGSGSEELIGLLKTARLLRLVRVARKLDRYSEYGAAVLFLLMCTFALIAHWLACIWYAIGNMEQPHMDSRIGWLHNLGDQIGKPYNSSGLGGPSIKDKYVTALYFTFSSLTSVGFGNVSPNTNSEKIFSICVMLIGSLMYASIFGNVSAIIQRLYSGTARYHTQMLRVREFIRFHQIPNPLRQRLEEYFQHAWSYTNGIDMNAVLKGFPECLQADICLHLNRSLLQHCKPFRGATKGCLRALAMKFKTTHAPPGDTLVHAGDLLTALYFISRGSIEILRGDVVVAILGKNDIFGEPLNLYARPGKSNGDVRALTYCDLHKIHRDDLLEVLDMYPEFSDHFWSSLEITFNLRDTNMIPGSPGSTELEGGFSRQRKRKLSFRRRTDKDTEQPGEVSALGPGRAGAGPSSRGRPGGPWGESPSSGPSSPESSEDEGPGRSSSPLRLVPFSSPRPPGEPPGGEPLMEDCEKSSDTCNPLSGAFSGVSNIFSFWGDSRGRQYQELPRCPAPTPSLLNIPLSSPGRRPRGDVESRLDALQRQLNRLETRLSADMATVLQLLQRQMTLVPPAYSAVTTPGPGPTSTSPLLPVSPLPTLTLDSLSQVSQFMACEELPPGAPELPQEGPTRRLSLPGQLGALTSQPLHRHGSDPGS

Row | Structure (SMILES) | hERG current change (%, negative = inhibition) at 10uM
1 | CC(=O)Oc1ccc(C(=O)Nc2ccc(C3(C#N)CCCC3)cc2)cc1 | 24%
2 | CCCC(=O)Nc1ccc(NC(=S)NC(=O)c2ccccc2[N+](=O)[O-])cc1 | 9%
3 | COc1cc(C2C(C#N)=C(N)Oc3n[nH]c(-c4cccnc4)c32)cc(Br)c1O (centres unmarked) | 2.34%
4 | Cn1c(NC(=O)c2ccc3c(c2)OCO3)cc(=O)n(C)c1=O | 11.2%
5 | CN1CCN(Cc2c(O)ccc3c(=O)c(Oc4ccccc4Cl)c(C(F)(F)F)oc23)CC1 | -2.94%
6 | Cc1cc(C)cc(NC(=O)CN(c2ccc(F)cc2)S(C)(=O)=O)c1 | 16%
7 | COc1cc(S(=O)(=O)N2CCCCC2)ccc1NC(=O)c1ccc(F)cc1 | -17.6%
8 | CC(OC(=O)c1cc(=O)[nH]c2ccccc12)C(=O)c1ccccc1 (centres unmarked) | -13.9%
9 | CCC1(CC)NC(=O)N(CC(=O)NCc2ccc3c(c2)OCO3)C1=O | 8.7%
10 | Cc1ccc(C)c(CN2CCC(CNC(=O)Nc3ccc(C)c(C)c3)CC2)c1 | -74.3%
11 | CN(C)CC(O)COc1cc2ccccc2cc1C(=O)N1CCCCC1 (centres unmarked) | -41.5%
12 | CCc1cccc(C)c1NC(=O)COC(=O)CNC(=O)c1cccs1 | 15.5%
13 | COc1ccc(CCCc2nnc(SCc3nc4ccccc4c(=O)[nH]3)n2C)c(C)c1 | -22.3%
14 | O=C(c1cc(Cl)ccc1Cl)N1CCOCC1 | 8%
15 | COC(CNC(=O)C1CCCN(S(=O)(=O)c2ccc3c(c2)oc(=O)n3C)C1)OC (centres unmarked) | 17.1%
16 | Cc1c(NS(=O)(=O)c2ccccc2)c(=O)n(-c2ccccc2)n1C | 13.1%
17 | COc1ccc(CNC(=O)CN(c2ccc(C(C)C)cc2)S(=O)(=O)c2c(C)noc2C)cc1 | 7.55%
18 | Fc1ccc(NC(=S)NCc2ccccc2)cc1 | 0.833%
19 | CCn1cc(/C=N/N=C2\CCC3C4CCc5cc(O)ccc5C4CC[C@]23C)c(C)n1 (some centres unmarked) | -0.991%
20 | O=C(O)c1ccc(Nc2nc(-c3ccc([N+](=O)[O-])cc3)nc3ccccc23)cc1 | 19%
21 | O=C(COC(=O)CSc1ccc([N+](=O)[O-])cc1)NCCC1=CCCCC1 | 10.1%
22 | Cn1nc([N+](=O)[O-])nc1Oc1ccccc1N | 13.8%
23 | COc1cccc2sc(N(CCCN(C)C)C(=O)COc3ccc(Cl)cc3)nc12.Cl | -80.2%

Row | Structure (SMILES) | hERG current change (%, negative = inhibition) at 10uM
24 | Cc1ccccc1N1CCN(C(=S)c2ccc(-c3cccc([N+](=O)[O-])c3)o2)CC1 | -5.58%
25 | CCc1noc(C)c1C(=O)N1CCN(S(=O)(=O)c2c(C)c(C)cc(C)c2C)CC1 | -6.05%
26 | COc1cc(OC)c(C(=O)Nc2cccc3ccccc23)cc1OC | 15.5%
27 | O=c1c2ccccc2nc2n1C(CSc1ccc(Br)cc1)CN2 (centres unmarked) | -13%
28 | Fc1ccc(-n2nnc(-c3ccccc3Br)n2)cc1 | 0.141%
29 | Cl.NCCc1ccc(OCc2ccccc2)c(OCc2ccccc2)c1 | -22.1%
30 | Cc1cc(-c2ccccc2)c(C#N)c(SCC(N)=O)n1 | -3.47%
31 | CCOC(=O)c1ccc(NC(=O)C2CC3CCC2C3)cc1 (centres unmarked) | -15%
32 | COCc1ccc(C(=O)N2CCCCC2C(=O)Nc2ccc(-n3nc(C)cc3C)cc2)o1 (centres unmarked) | 2.1%
33 | Cn1c(N)c(C(=O)COC(=O)/C=C/c2ccc(OC(F)F)cc2)c(=O)n(C)c1=O | 3.23%
34 | Cc1csc2ncc(C(=O)Nc3ccc4c(c3)OCCO4)c(=O)n12 | 12.6%
35 | O=C(c1ccco1)N1CCN(c2ccc(F)cc2)CC1 | -0.235%
36 | O=C(COC(=O)c1ccc(Cl)nc1)Nc1cccc(S(=O)(=O)N2CCCCC2)c1 | -34.6%
37 | CN(C(=O)COC(=O)c1ccc(=O)n(Cc2ccccc2)n1)C1CCS(=O)(=O)C1 (centres unmarked) | -3.87%
38 | CCOc1cc(S(=O)(=O)NC2CCCCCC2)ccc1F | -8.88%
39 | Cc1[nH]c(=O)[nH]c(=O)c1S(=O)(=O)N(C)Cc1ccccc1 | -4.02%
40 | CCC/C(O)=C1\C(=O)CC(c2ccccc2)CC1=NCCc1c(C)[nH]c2ccc(C)cc12 (centres unmarked) | -0.0297%
41 | COc1ccc(CCn2c(O)c(C=NCCCN(C)C)c(=O)[nH]c2=O)cc1OC | -7.51%
42 | O=C(CSc1nc2ccccc2o1)Nc1ccc(Cl)cc1 | -15%
43 | COc1ccccc1C(=O)Nc1ccc(C(=O)/C=C/c2cccs2)cc1 | 16%
44 | Cn1c(=O)[nH]c(=O)c2c1nc(N1CCOCC1)n2CCSc1nnnn1-c1ccccc1 | -21.1%
45 | Brc1ccc(/C=N/c2nc3ccccc3n2CCN2CCOCC2)cc1 | 1.64%
46 | COc1cc(C=O)ccc1OCCOCCOc1ccc(Cl)cc1 | -37.6%

Row | Structure (SMILES) | hERG current change (%, negative = inhibition) at 10uM
47 | CC(C)n1c(NCc2nc3ccccc3n2C)nc2ccccc21 | -46.4%
48 | CCOC(=O)CN1CC23C=CC(O2)C(C(=O)Nc2ccc(F)c(C)c2)C3C1=O (centres unmarked) | 14.3%
49 | COc1ccc(NC(=O)C(=O)NCc2ccncc2)c(OC)c1 | 2.68%
50 | Cc1cccc(N2CCN(C(=O)COc3cc4oc(=O)cc(C)c4cc3Cl)CC2)c1C | 13.9%
51 | Cc1cc(C(=O)OCC(=O)c2ccc3c(c2)OCCO3)c(C)o1 | -7.97%
52 | COc1ccc(NC(=O)c2ccccc2Oc2ccccc2)c(OC)c1 | 1.42%
53 | CC(=O)Nc1ccc(SCC(=O)Nc2ccccc2-c2ccccc2)cc1 | -10.6%
54 | Cc1ccc(-n2c(C)cc(/C=N/NC(=O)c3ccncc3)c2C)c(C)c1 | 1.67%
55 | C/C(=N\NC(=O)c1ccc(N2CCCC2=O)cc1)c1ccncc1 | 26.7%
56 | COC(=O)c1ccc(OC(=O)C23CCC(C)(C(=O)O2)C3(C)C)cc1 (centres unmarked) | -4.97%
57 | Cc1ccc(C)c(C(=O)CCC(=O)O)c1 | 5.2%
58 | CC(=O)c1ccc(N2CCCC2)c(F)c1 | 1.88%
59 | COc1ccc(NC(=O)c2sc3nc(C)cc(C)c3c2N)cc1 | 28.6%
60 | CC(C)(C)NC(=O)NC(=O)COC(=O)C1(C)CC1(Cl)Cl (centres unmarked) | -1.13%
61 | N#Cc1ccsc1NC(=O)C1=COCCO1 | -0.941%
62 | COC(=O)c1cc2ccsc2n1Cc1cc(=O)n2ccccc2n1 | -5.33%
63 | S=c1[nH]nc(-c2cccs2)n1C1CCCCC1 | 7.17%
64 | CCCCC1=CC2=CC(=O)C(C)(OC(=O)CC)C(=O)C2=CN1CCOC (centres unmarked) | -5.6%
65 | COc1cc(/C=N/NC(=O)C(N)=O)cc(OC)c1O | 23.2%
66 | O=C(C(c1ccccc1)c1ccccc1)N1CCN(Cc2ccccn2)CC1 | -11%
67 | CC(C)C[C@H](NC(=O)c1cc2cc(Cl)ccc2n1C)C(=O)N1CCC(C(=O)O)CC1 | 13.5%
68 | Cc1cccn2c(Nc3ccccc3)c(-c3ccccn3)nc12 | 1.81%
69 | CCCn1c(SCC(=O)N2CCCCC2)nc2c1c(=O)n(C)c(=O)n2C | 16.9%

Row | Structure (SMILES) | hERG current change (%, negative = inhibition) at 10uM
70 | COc1ccc(-c2oc3ccc(N4CCOCC4)cc3c2C#Cc2ccc(N)cc2)cc1 | 17.3%
71 | COc1cc(C(C#N)N2N=C(c3ccccc3)CC2c2ccccc2)ccc1O (centres unmarked) | -14.2%
72 | COc1cccc(C(=O)NC2CCN(C(=O)N3CCCCC3)CC2)c1 | 19.5%
73 | N/C(=N/OC(=O)c1ccccc1F)c1nonc1N | 21.3%
74 | C=CCNC(=O)c1onc(CSc2cccc(C)c2)c1C(=O)O | -49.6%
75 | Cc1cccc(NC(=O)CSc2nnc(NC(=O)C3CCC3)s2)c1 | 22.9%
76 | COC(=O)CC1C(=O)NCCN1C(=O)c1ccc(S(=O)(=O)N2CCOCC2)cc1 (centres unmarked) | 8.9%
77 | Cc1ccc(NC(=O)Cn2c(CCC(=O)O)ccc2-c2cccs2)cc1Cl | -75.3%
78 | Cc1ccc(-c2ccc3c(c2)S(=O)(=O)c2ccccc2C3=O)cc1 | 4.82%
79 | CCNC(=O)NC1(C(=O)N2CCC(Cc3ccccc3)CC2)CCCCC1 | 21.7%
80 | Cc1ccc(-c2nn(C)c(=O)c3ccccc23)cc1CNS(C)(=O)=O | -2.75%
81 | O=S(=O)(Nc1ccc(-c2ccc3nncn3n2)cc1)c1cc(F)ccc1F | -6.27%
82 | CC(C(=O)NC1C=CS(=O)(=O)C1)N1C(=O)/C(=C/c2ccc(Cl)cc2)SC1=S (centres unmarked) | -12.3%
83 | COc1ccc(CCN(C)CC(O)COc2c(C)ccc(C)c2C)cc1OC (centres unmarked) | -76%
84 | COCCNC(=O)/C(C#N)=C/c1cccc(OCc2ccccc2)c1 | -1.17%
85 | Cc1ccc(Cl)c(OCC(O)CN(CCO)CCO)c1 (centres unmarked) | -0.678%
86 | C=CCNc1ccc(F)c(F)c1N1CCCCCC1=O | 12.7%
87 | CCCC1C2C(=O)N(c3cccc(C)c3)C(=O)C2ON1c1ccccc1 (centres unmarked) | -7.73%
88 | CCOC(=O)c1nc(-c2ccccc2)sc1C(C)=O | -0.873%
89 | COc1cc(O)oc1C=Nc1ccccc1 | -18.3%
